Data: a collection of fitness landscapes (doi:10.1016/j.celrep.2020.107928)
In all, about 81,000 sequences were measured (“one-hybrid fitness for binding NBS DNA”: median about -0.1, highest 2% from about 0.36 on). The list shows a part of the results.

B1: Caulobacter ParB omega fusion; a variant is named by its letters at X, in order, B8GW30 (parent)
chain: MESVVVGEPGMSEGRRGLGRGLSALLGEVDAAPAQAPGEQLGGSREAPIEILQRNPDQPRRTFREEDLEDLSNSIREKGVLQPILVRPSPDTAGEYQIVAGERAWRAAQRAGLKTVPIMVRELDDLAVLEIGIIENVQRADLNVLEEALSYKVLMEKFERTQENIAQTIGKSXSHVANXMRLLXLPDEVQSYLVSGELTAXHARAIAAAADPVALAKQIIEGGLSVRETEALARKAPNLSAGKSKGGRPPRVKDTDTQALESDLSSVLGLDVSIDHRGSTGTLTITYATLEQLDDLCNRLTRGI

Variants of: B1
Assay: one-hybrid fitness for binding NBS DNA (the Noc-binding site; scaled: cognate 1, non-cognate 0); higher = stronger binding
Details: with NBS DNA site
In short: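 Selection: bacterial one-hybrid in E. coli USO, HIS3 reporter with the site 19 bp from the promoter, 48 hours at 37°C on M9-minus-histidine plus 0.1 mM IPTG and 5 mM 3-AT. Libraries were Caulobacter ParB with four randomised specificity codons, sequenced on Illumina before and after selection. Fitness is the rescaled log change in variant-to-wild-type read ratio, anchored to the cognate and non-cognate sites.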

one-hybrid fitness for binding NBS DNA, 0.437:
QMRQ

one-hybrid fitness for binding NBS DNA, 0.237:
QLRI

one-hybrid fitness for binding NBS DNA, 0.398:
QAHS

one-hybrid fitness for binding NBS DNA, 0.378:
TTRR

one-hybrid fitness for binding NBS DNA, 0.291:
QAIT

one-hybrid fitness for binding NBS DNA, 0.223:
QRCE

one-hybrid fitness for binding NBS DNA, 0.262:
QTYY

one-hybrid fitness for binding NBS DNA, 0.499:
QTIR

one-hybrid fitness for binding NBS DNA, ≤ 0.2:
PMRC
IHPR
FDVD
RSES
LFME
ALRQ
WQSG
SWYT
AALP
GSHK
GSNS
VCQS
FYPK
PAYK
RESA
SLMM
ARVW
DAIR
CMPL
MRMS
YMLG
PHIL
IPCT
GNHL
NGYI
LENG
PFKA
ANHT
PTQL
SSWR
FRHL
TQQN
AWYS
CAVL
AMYL
NNLS
ARQT
QCYW
GTCC
VSHY
TWAT
EDKG
CCES
TTPS
PSHE
MGHR
ELAC
RMAA
DRLC
RPKV
YAMC
ATFT
YWSR
AWLV
IVKK
ICYT
ISAN
MLGP
YFKC
VKNS
WAPQ
AQSH
CFSS
RFWG
LLCE
PVKH
PLKV
EFLA
PNLG
EDAV
AMPV
PLQH
VVRM
LTGT
SNRL
AALS
EPWR
YGRR
ALGF
WQPV
PDAC
IVTL
DEKT
DNPY
NPSR
QHAW
KQRG
WWAM
VNDV
AVSV
KNQK
KSSR
AWYW
FRVG
KKYC
VSCG
EAVS
KHYR
SHKE
MMAC
ADPH
HQES
NQRM
YTLW
KLHA
EAKV
GSFV
ISVG
STYI
PPHL
GYHN
ARHF
RCGE
QHSA
ETPL
IRSS
AFTC
TCTS
DYHC
RGDC
GSKW
RTNW
APSA
NPFG
QWSH
ILYK
RQMY
TPIP
TRPK
ARQS
NSMT
IYSI
ASNE
TWRR
QGHY
KPHL
MCLS
PKKT
QHTK
ARDR
NHSL
YLLT
GYTA
TQIS
LKSI
SHTE
AVAS
LEVG
KNVG
VLKT
GLGA
VLTR
ILTC
TVQC
PCRA
RAYP
GIVR
DEPC
TPKI
LLCP
MSEH
AQVV
SGMS
PCRL
GCQA
ISVS
GKQR
FYFS
PEDM
EPVV
AGRN
TFLQ
ATVI
LQMC
RENS
CRMS
DARN
EPYW
PNWV
PCTS
KRGI
RISH
GRPR

one-hybrid fitness for binding NBS DNA, 0.208:
PALR

one-hybrid fitness for binding NBS DNA, 0.318:
RCKY

one-hybrid fitness for binding NBS DNA, 0.238:
RCTA

one-hybrid fitness for binding NBS DNA, 0.321:
RTVQ
